Some of the results follow.
These compounds were tested on HSkMC (human skeletal muscle cells) (assay: cytotoxicity call (relative viability < 0.9)). Conditions: 10 µM.

Row | SMILES | cytotoxicity call
1 | O=C1O[C@@H](c2ccccc2)[C@@H](c2ccccc2)N2[C@@H](c3ccc(O)cc3)[C@]3(C(=O)Nc4ccccc43)[C@@H](C(=O)NC[C@H](O)c3ccccc3)[C@H]12 | inactive
2 | CCn1c(-c2nonc2N)nc2cncc(C(=O)N3CC[C@H](N)C3)c21 | active
3 | O=C(C[C@@H]1C=C[C@@H](NS(=O)(=O)c2ccc(F)cc2)[C@H](CO)O1)NCc1ccc(Cl)c(Cl)c1 | inactive
4 | CO[C@H]1CN(C)C(=O)c2ccc(NC(=O)Nc3cccc(Cl)c3)cc2OC[C@@H](C)N(C(=O)Nc2c(C)noc2C)C[C@@H]1C | inactive
5 | C[C@H]1CCCCO[C@@H](CN(C)S(=O)(=O)c2cccs2)[C@@H](C)CN([C@@H](C)CO)C(=O)c2cc(NC(=O)Nc3ccc(C(F)(F)F)cc3)ccc2O1 | inactive
6 | NC(=O)NCC#Cc1ccc2c(c1)[C@]1(C(=O)N2)[C@H](C(=O)N2CCCCCCC2)[C@H]2C(=O)O[C@H](c3ccccc3)[C@H](c3ccccc3)N2[C@@H]1c1ccc(O)cc1 | inactive
7 | C[C@@H]1CN([C@H](C)CO)S(=O)(=O)c2ccc(C#Cc3ccccn3)cc2O[C@H]1CN(C)Cc1ccccc1 | inactive
8 | COCC(=O)N(C)C[C@@H]1Oc2cc(C#CCC3CCCC3)ccc2S(=O)(=O)N([C@@H](C)CO)C[C@@H]1C | inactive
9 | C[C@@H]1CN([C@@H](C)CO)C(=O)c2cccc(NC(=O)c3cnccn3)c2O[C@@H]1CN(C)S(=O)(=O)c1ccc(F)cc1 | inactive
10 | C[C@H]1CN([C@@H](C)CO)C(=O)c2cc(NS(=O)(=O)c3cn(C)cn3)ccc2O[C@@H]1CN(C)Cc1ccc2c(c1)OCO2 | inactive
11 | C[C@H](CO)N1C[C@H](C)[C@H](CN(C)C(=O)Nc2cccc3ccccc23)Oc2ccc(NC(=O)Nc3ccc(F)cc3)cc2CC1=O | inactive
12 | COc1ccc(S(=O)(=O)Nc2cccc3c2O[C@@H](CN(C)S(=O)(=O)c2cccs2)[C@H](C)CN([C@H](C)CO)C3=O)cc1 | inactive
13 | C#CCn1c(=O)c2c(OC)ccnc2n(C)c1=O | inactive
14 | C[C@@H]1CN([C@@H](C)CO)C(=O)c2cc(NC(=O)Nc3ccc(C(F)(F)F)cc3)ccc2O[C@H]1CN(C)Cc1ccncc1 | inactive
15 | CS(=O)(=O)Nc1ccc2c(c1)[C@H]1C[C@H](CC(=O)NCc3ccc(-c4ccccc4)cc3)O[C@@H](CO)[C@H]1O2 | inactive
16 | C[C@@H]1CN([C@H](C)CO)C(=O)c2cc(NC(=O)c3ccccc3)ccc2O[C@@H](C)CCCCO[C@H]1CN(C)S(=O)(=O)c1cccs1 | inactive
17 | C[C@H](CO)N1C[C@H](C)[C@@H](CN(C)C(=O)Cc2cccnc2)Oc2ncc(C#CCc3ccccc3)cc2C1=O | inactive
18 | Cc1ccccc1-c1ccc2c(c1)O[C@@H](CN(C)C(=O)Nc1ccc(C(F)(F)F)cc1)[C@@H](C)CN([C@H](C)CO)S2(=O)=O | inactive
19 | C[C@H](CO)N1C[C@H](C)[C@H](CN(C)Cc2ccc(Oc3ccccc3)cc2)Oc2ccc(NS(=O)(=O)c3ccc(Cl)cc3)cc2C1=O | inactive
20 | Cc1noc(C)c1S(=O)(=O)Nc1ccc2c(c1)CC(=O)N([C@@H](C)CO)C[C@@H](C)[C@H](CN(C)S(=O)(=O)c1ccc(Cl)cc1)O2 | inactive

Row | SMILES | cytotoxicity call
21 | COC(=O)C1=CO[C@@H](O[C@@H]2O[C@H](CO)[C@@H](O)[C@H](O)[C@H]2O)[C@H]2[C@@H]1[C@H](O)C[C@]2(C)O | inactive
22 | C[C@H](CO)N1C[C@H](C)[C@H](CN(C)Cc2cncnc2)Oc2cc(C#CC3CCCC3)ccc2S1(=O)=O | inactive
23 | CN(C)CC(=O)N[C@H]1CC[C@@H](CC(=O)O)O[C@H]1CO | inactive
24 | CCS(=O)(=O)Nc1ccc2c(c1)C(=O)N(C)C[C@@H](OC)[C@H](C)CN(Cc1nccs1)[C@H](C)CO2 | inactive
25 | NC(=O)c1ccc(CN2CCOCC2)cc1 | inactive
26 | C[C@@H]1CN([C@@H](C)CO)C(=O)c2cc(NS(=O)(=O)c3cn(C)cn3)ccc2O[C@H]1CN(C)S(=O)(=O)c1ccc(F)cc1 | inactive
27 | C[C@@H]1CN([C@@H](C)CO)C(=O)c2cc(NC(=O)Nc3ccc(C(F)(F)F)cc3)ccc2O[C@@H](C)CCCCO[C@H]1CN(C)Cc1ccc(C(=O)O)cc1 | inactive
28 | C[C@H]1CN([C@@H](C)CO)C(=O)Cc2cc(NC(=O)c3ccncc3)ccc2O[C@H]1CN(C)C(=O)Nc1ccc2c(c1)OCO2 | inactive
29 | C[C@@H]1CN([C@@H](C)CO)C(=O)CCCn2cc(nn2)CO[C@H]1CN(C)C(=O)Nc1ccccc1C(F)(F)F | inactive
30 | COc1ccc(S(=O)(=O)N(C)C[C@H]2Oc3c(NC(=O)Nc4c(C)noc4C)cccc3C(=O)N([C@H](C)CO)C[C@@H]2C)cc1 | inactive
31 | O=c1nc[nH]c2c1ncn2[C@@H]1O[C@H](CO)[C@@H](O)[C@H]1O | inactive
32 | CN1CCN(C(=O)[C@H]2[C@H](CO)[C@H]3Cn4c(ccc(C5=CCCC5)c4=O)[C@@H]2N3S(C)(=O)=O)CC1 | inactive
33 | O=c1[nH]cc(S(=O)(=O)N2CCN(c3ccccc3F)CC2)c(=O)[nH]1 | inactive
34 | CNC[C@@H]1Oc2ccc(NS(=O)(=O)c3cn(C)cn3)cc2C(=O)N([C@@H](C)CO)C[C@@H]1C | inactive
35 | C[C@@H]1CN([C@H](C)CO)C(=O)Cc2cc(NC(=O)C3CCCCC3)ccc2O[C@@H]1CN(C)Cc1ccc(C(=O)Nc2ccccc2N)cc1 | inactive
36 | Cc1noc(C)c1S(=O)(=O)Nc1ccc2c(c1)C(=O)N([C@H](C)CO)C[C@@H](C)[C@@H](CN(C)S(=O)(=O)c1c(C)noc1C)O2 | inactive
37 | Cn1ccc(C(=O)N2CCC3(CCOC[C@@H]3NS(C)(=O)=O)CC2)n1 | inactive
38 | C[C@H](CO)N1C[C@H](C)[C@@H](CN(C)Cc2ccc(C(=O)Nc3ccccc3N)cc2)Oc2c(NS(=O)(=O)c3cn(C)cn3)cccc2C1=O | inactive
39 | COc1ccc(NC(=O)Nc2ccc3c(c2)C(=O)N([C@H](C)CO)C[C@H](C)[C@@H](CN(C)S(=O)(=O)c2ccc(Cl)cc2)OCCCC[C@H](C)O3)cc1 | inactive
40 | COc1cccc(NC(=O)N[C@@H]2C=C[C@H](CC(=O)N3CCN(C)CC3)O[C@@H]2CO)c1 | inactive
